# Results reported in PubChem BioAssay AID1347165 (National Center for Advancing Translational Sciences (NCATS), 2019).
# Hit rate of the full screen: of about 220,000 compounds, about 5,700 (2.6%) were called active. The shares of active, inactive and inconclusive entries below differ from those in the screen. Calls come from the whole dose curve; as a rule, active = well fitted inhibition curve with a large enough effect; inconclusive = small, poorly fitted or top-dose-only effect; inactive = no such curve, though single readings can be large or run the other way. A potency beside an inconclusive call is a rough fit, not a confirmed value.
# Molecular target: Lysine-specific demethylase 5B (Homo sapiens) (UniProt Q9UGL1)
# Sequence of UniProt Q9UGL1 (Q9UGL1 whole entry, looked up): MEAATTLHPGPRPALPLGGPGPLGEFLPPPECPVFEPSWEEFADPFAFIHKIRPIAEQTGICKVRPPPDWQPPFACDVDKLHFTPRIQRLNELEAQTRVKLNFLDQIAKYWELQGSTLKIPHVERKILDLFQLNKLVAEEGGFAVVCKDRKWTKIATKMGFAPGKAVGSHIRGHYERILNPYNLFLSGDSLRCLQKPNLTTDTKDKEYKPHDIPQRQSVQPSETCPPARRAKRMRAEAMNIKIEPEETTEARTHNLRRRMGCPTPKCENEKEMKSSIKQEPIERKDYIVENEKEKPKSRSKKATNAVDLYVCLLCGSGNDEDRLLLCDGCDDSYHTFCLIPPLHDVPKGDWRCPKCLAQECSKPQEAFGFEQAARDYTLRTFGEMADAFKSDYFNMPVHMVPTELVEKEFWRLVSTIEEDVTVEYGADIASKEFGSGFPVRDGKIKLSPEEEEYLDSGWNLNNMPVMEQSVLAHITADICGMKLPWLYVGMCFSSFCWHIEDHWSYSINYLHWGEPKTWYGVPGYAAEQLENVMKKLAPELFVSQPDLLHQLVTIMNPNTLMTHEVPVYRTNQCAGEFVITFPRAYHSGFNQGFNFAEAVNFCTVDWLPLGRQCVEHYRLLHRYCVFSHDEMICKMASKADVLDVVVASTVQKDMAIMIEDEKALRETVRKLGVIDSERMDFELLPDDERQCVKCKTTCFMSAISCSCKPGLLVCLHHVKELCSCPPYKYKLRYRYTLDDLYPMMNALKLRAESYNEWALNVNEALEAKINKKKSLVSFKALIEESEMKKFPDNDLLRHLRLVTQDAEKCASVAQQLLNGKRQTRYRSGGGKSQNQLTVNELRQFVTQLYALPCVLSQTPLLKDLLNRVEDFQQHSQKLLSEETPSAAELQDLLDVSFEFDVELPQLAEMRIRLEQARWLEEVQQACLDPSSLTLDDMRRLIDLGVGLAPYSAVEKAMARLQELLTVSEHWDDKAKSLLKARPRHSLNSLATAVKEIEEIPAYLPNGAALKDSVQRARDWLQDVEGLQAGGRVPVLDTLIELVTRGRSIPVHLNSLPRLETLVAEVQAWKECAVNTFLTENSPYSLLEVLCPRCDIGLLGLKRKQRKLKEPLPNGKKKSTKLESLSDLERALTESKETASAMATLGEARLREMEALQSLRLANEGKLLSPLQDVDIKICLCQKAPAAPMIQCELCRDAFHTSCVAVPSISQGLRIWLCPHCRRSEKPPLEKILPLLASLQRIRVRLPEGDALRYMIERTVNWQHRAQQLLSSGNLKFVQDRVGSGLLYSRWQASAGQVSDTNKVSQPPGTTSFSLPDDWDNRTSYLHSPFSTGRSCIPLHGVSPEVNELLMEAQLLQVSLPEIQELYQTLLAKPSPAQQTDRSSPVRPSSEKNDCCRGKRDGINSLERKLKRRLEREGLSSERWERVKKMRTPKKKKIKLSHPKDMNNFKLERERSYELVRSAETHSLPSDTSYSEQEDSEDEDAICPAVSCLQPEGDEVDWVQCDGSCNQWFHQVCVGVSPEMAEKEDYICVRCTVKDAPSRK
# Test: Primary screen for KDM5B Histone Demethylases FDH-coupled qHTS; note: nearly all actives have a fitted effect of over 70% in size; for activity change, negative = inhibition: 0% is about no effect
# Conditions: FDH-coupled NADH fluorescence (FDH is formaldehyde dehydrogenase); activity change, negative = inhibition: at 57.7 µM (top of the series) unless noted
# Summary of the method: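 Compound dilutions met 200 nM (final) KDM5BΔAP for 10 min at room temperature before substrate addition. The substrate mix held 12.5 µM H3K4me3 with cofactors 25 µM α-ketoglutarate and 50 µM Fe²⁺. NADH signal gain over 30 min defined activity.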
# Potency is the fitted concentration of half-maximal effect; tags give direction and shape of the fitted curve.
Structure (SMILES),Potency,"activity change, negative = inhibition"
O=C(c1cc(=O)c2ccccc2o1)N1CCC(CCN2CCCCC2)CC1,inactive,–
CCCCNC(=O)c1ccc(-c2nc(CN3CCc4ccccc43)c(C)o2)cc1,"inconclusive: 31.6 µM [inhibitor, partial curve, poor fit]",–
Cc1nn(-c2ccc(C(C)(C)C)cc2)c(C)c1[C@@H]1C=C[C@@H](NC(=O)CCCC(=O)O)C1,inactive,–
CCc1nccn1CC(=O)N1CCc2[nH]cnc2C1C(=O)O (configuration not stated),"inconclusive: 35.5 µM [inhibitor, single point]",–
CN1CC(=O)N(C2CCCNCC2)Cc2c(NCC3CC3)ncnc21 (configuration not stated),"inconclusive: 56.2 µM [inhibitor, partial curve, poor fit]",–
Cc1ccc(OCc2nc3c4c(ncn3n2)OC2=C(C(=O)CCC2)C4c2ccco2)cc1 (configuration not stated),inactive,–
COc1ccc(NC(=O)Cn2ncc3c4ccccc4n(Cc4ccccc4)c3c2=O)cc1OC,inactive,–
Cn1c(=O)c2c(nc(CN3CCN(c4ccccc4F)CC3)n2Cc2ccccc2)n(C)c1=O,inactive,–
CC(=O)Nc1cc(-c2cn(C)c(=O)n3cc(CN4CC[S+](=O)([O-])CC4)nc23)ccn1,active: 35.5 µM,–
COc1ccc(OC)c2nc(-c3cccc(Cl)c3)c(CN3CCC(O)CC3)cc12,"inconclusive: 31.6 µM [inhibitor, single point]",–
COC(=O)CC[C@H]1CNC(=O)[C@@H]2[C@@H](CCN2Cc2ncc[nH]2)N1C,"inconclusive: 11.2 µM [inhibitor, partial curve, poor fit]",–
O=C(c1ccoc1)N1CCCN(C2CCC3(CCNCC3)CC2)CC1,inactive,–
Cc1ccccc1-c1ncc(CN2CCN(c3ccncc3C)CC2)cn1,"inconclusive: 35.5 µM [inhibitor, single point]",–
COc1cccc(NC(=O)CN2CCN(CC(=O)Nc3ccc(F)cc3)CC2)c1,"inconclusive: 35.5 µM [inhibitor, partial curve, poor fit]",–
COc1cc(=O)n2c(c1C(=O)Nc1cccc(F)c1)CCCC2,inactive,–
CCOC(=O)c1c(S(=O)(=O)N2CCN(c3cc(Cl)ccc3C)CC2)c(C)n(C)c1C,–,inconclusive: -73.8% [inhibitor] [at 11.5 µM]
Cc1ccc(S(=O)(=O)CCC(=O)OCC(=O)NC(C)C(C)C)cc1 (configuration not stated),inactive,–
Nc1ccccc1-n1ccnc1,inactive,–
CCCc1ccc(OC(=O)c2sc3ncn(Cc4cccc(F)c4)c(=O)c3c2C)cc1,–,inconclusive: -36.2% [inhibitor] [at 11.5 µM]
Cc1cc(C)c(C(O)C(C)Sc2ccc(Cl)cc2)cc1C (configuration not stated),inactive,–
CCC(=O)Nc1cc(C(=O)NCC(C)C)c2ccc(C)nc2c1,active: 22.4 µM,–
CCCn1cnc2c1CN(S(=O)(=O)c1ccc(F)cc1)[C@H](C(=O)OC)C2,"inconclusive: 31.6 µM [inhibitor, partial curve]",–
CCCCN(C(=O)Nc1ccc(OCC)cc1)C1CCN(C(C)=O)CC1,–,inconclusive: -31% [inhibitor]
O=C(N[C@H]1CCN2C(=O)c3cc(-c4cccc(C(F)(F)F)c4)ccc3NC(=O)[C@H]12)c1cnccn1,inactive,–

Structure (SMILES),Potency,"activity change, negative = inhibition"
CCc1ncc(-c2c(-c3ccccc3)ncn2CCCOc2cccnc2)cn1,inactive,–
COc1cccc(NC(=O)N(C[C@H]2O[C@H](Cc3cc(-c4ccccc4)on3)CC[C@@H]2O)C(=O)Nc2cccc(OC)c2)c1,inactive,–
COc1cccc(NC(=O)CN(C)CC(=O)Nc2ccc(C)cc2)c1,"inconclusive: 20 µM [inhibitor, partial curve, poor fit]",–
Cc1cc(C)c(CNC(=O)c2cc(-c3ccccc3C)cc3ncn(C)c23)c(=O)[nH]1,"inconclusive: 31.6 µM [inhibitor, partial curve]",–
COc1cncc(Nc2ncc(-c3cccc(N(C)C)c3)c3c2OCC3)c1,active: 31.6 µM,–
CCCCn1nc(C(=O)Nc2cc(OC)c(OC)cc2C)c2ccccc2c1=O,inactive,–
CS(=O)(=O)Oc1ccc2c(c1)O/C(=C\c1cccnc1)C2=O,"inconclusive: 22.4 µM [inhibitor, single point]",–
O=c1oc2ccccc2c(O)c1Cc1cc(Cl)c2cccnc2c1O,"inconclusive: 10 µM [inhibitor, partial curve, poor fit]",–
Cc1cccc(OCCN)c1,inactive,–
Cc1ccc(-c2cc3c(=O)n(CCNC(=O)c4cc(F)ccc4F)ccn3n2)cc1C,"inconclusive: 17.8 µM [inhibitor, partial curve, poor fit]",–
Nc1nc2c(s1)C(c1cccc(Cl)c1Cl)CC(=O)N2 (configuration not stated),"inconclusive: 28.2 µM [inhibitor, partial curve, poor fit]",–
COc1ccc(-c2cc(-c3ccc4cn[nH]c4c3)cn3cncc23)cn1,active: 10 µM,–
CNC(=O)CCn1ncc2cc(OCc3ccccc3-c3cccc(CO)c3)ccc21,"inconclusive: 44.7 µM [inhibitor, partial curve, poor fit]",–
COc1cc(C(=O)OC2CCCCC2=O)ccc1OCc1ccccc1Cl (configuration not stated),inactive,–
Cc1nnc2n1CCC(NC(=O)CCCc1c[nH]c3ccccc13)CC2 (configuration not stated),"inconclusive: 12.6 µM [inhibitor, partial curve, poor fit]",–
CCOC(=O)C(CC(=O)O)c1ccccc1 (configuration not stated),inactive,–
Clc1ccccc1C1(c2ccnc(NCCn3cccn3)n2)CCNCC1,active: 28.2 µM,–
CCN(CC)CCCNC(=O)c1ccc2c(c1)NC(=O)C(CS(=O)(=O)Cc1ccc(F)cc1Cl)N2 (configuration not stated),"inconclusive: 22.4 µM [inhibitor, partial curve, poor fit]",–
CN(C)c1cccc(C(=O)NCCCSc2ccccc2)c1,"inconclusive: 39.8 µM [inhibitor, single point]",–
CN(C)C(=O)c1nc(C(C)(C)C)c2ccccn12,active: 112 µM,–
N#Cc1nc(-c2ccccc2)oc1N1CCN(C(=O)c2ccccc2F)CC1,"inconclusive: 1.78 µM [inhibitor, full curve, poor fit]",–
Cc1nc(NC(=O)C2c3ccccc3C(=O)N(C3CCCC3)C23CCCC3)sc1C (configuration not stated),active: 22.4 µM,–
O=c1n(CC2CC2)nc2n1CCN(Cc1ccc3cc[nH]c3c1)CC2,"inconclusive: 20 µM [inhibitor, single point]",–
N#Cc1cnn2c(C(F)F)cc(-c3ccccc3)nc12,"inconclusive: 1.78 µM [inhibitor, full curve, poor fit]",–

Structure (SMILES),Potency,"activity change, negative = inhibition"
O=c1n(-c2cccc(Cl)c2)nc2n1CCN(Cc1ccccc1)C2,active: 89.1 µM,–
CCOC(=O)c1c(NC(=O)COc2ccc(OC)cc2)sc(C(=O)N(CC)CC)c1C,"inconclusive: 25.1 µM [inhibitor, single point]",–
N#C/C(=C\c1ccccc1)c1nc(-c2cc3c(ccc4ccccc43)oc2=O)cs1,–,inconclusive: -33.6% [inhibitor]
CN1[C@@H](CCC(=O)N2CCN(c3ccccn3)CC2)CNC(=O)[C@H]2NCC[C@H]21,active: 35.5 µM,–
COc1ccc(OC)c(NC(=O)C2CCc3ncc(-c4ccsc4)n3C2)c1 (configuration not stated),inactive,–
COc1ccc(-c2noc(CNC(=O)c3ccc(OC)cc3OC)n2)cc1,–,inconclusive: -34.6% [inhibitor]
CCC1=Nc2cc(C(=O)N3CCC(C)CC3)ccc2Sc2ccc(C)cc21,"inconclusive: 25.1 µM [inhibitor, single point]",–
CCCCC(=O)Nc1cc(-c2nc3ccccc3o2)ccc1OC,"inconclusive: 31.6 µM [inhibitor, partial curve, poor fit]",–
CS(=O)(=O)c1ccc(CN2CC[C@@H](c3ccc4ccccc4c3)[C@H](O)C2)cc1,"inconclusive: 28.2 µM [inhibitor, partial curve]",–
N#Cc1cccc(NC(=O)NCCNc2ncccc2C(F)(F)F)c1,"inconclusive: 10 µM [inhibitor, partial curve, poor fit]",–
COc1cc(OC)cc(-c2onc(C)c2C(=O)NCCCCc2ccccc2)c1,"inconclusive: 31.6 µM [inhibitor, single point]",–
O=C(NC1CCCN(c2nc3ncccc3o2)C1)c1cccc(Cl)c1 (configuration not stated),inactive,–
CN(Cc1cn(C)c2ccccc12)C1CCc2nn(CC3CC3)c(=O)n2CC1 (configuration not stated),"inconclusive: 28.2 µM [inhibitor, partial curve, poor fit]",–
O=C(NCc1nnc2ccc(-c3ccccc3)nn12)c1cc(Cl)ccc1F,active: 25.1 µM,–
COCc1nc(CCNC(=O)C2CCC2)no1,inactive,–
COc1ccc(C2Cn3nnc(-c4nc(-c5ccc(C)c(C)c5)no4)c3CO2)cc1 (configuration not stated),"inconclusive: 12.6 µM [inhibitor, partial curve]",–
Cc1ccc(CN2CCN(C(=O)c3ccn(COc4cccc(Cl)c4)n3)CC2)cc1,inactive,–
O=C1NC(=NC2CCCC2)C2(CCCN([S+](=O)([O-])c3cccc(C(F)(F)F)c3)C2)N1c1cc(F)cc(F)c1 (configuration not stated),inactive,–
O=C1CCN(Cc2ccncc2)CCCC(C(=O)NCC2CC2)CCN1 (configuration not stated),"inconclusive: 31.6 µM [inhibitor, partial curve, poor fit]",–
CC(Oc1ccccc1)C(=O)NCCc1noc(-c2ccncc2)n1 (configuration not stated),inactive,–
C[C@H](N)C(=O)N1CCC(n2nccc2NC(=O)c2ccc3c(c2)OCO3)CC1,"inconclusive: 10 µM [inhibitor, partial curve]",–
CCN(CC)CC1CCN(C(=O)/C=C/c2ccc(C#N)cc2)CC1,inactive,–
CCOc1ccccc1C(=O)N1CCN(c2cc(-c3ccc(Cl)cc3)[nH]n2)CC1,inactive,–
CCOc1ccc(-c2cc3c(=O)n(CC(O)c4ccc(C(C)C)cc4)ccn3n2)cc1 (configuration not stated),"inconclusive: 15.8 µM [inhibitor, single point]",–
